Tests used:
cynomolgus IL3Rα = test: Biolayer interferometry binding (Octet RED384)
Procedure: (§1) The affinity of CD123 antibodies described herein was determined using Biolayer interferometry.
(§2) Biolayer interferometry binding experiments were performed using an Octet RED384 instrument, with all measurements made at 30° C. AHC biosensor probes were soaked in kinetics buffer (PBS pH 7.2+0.02% Tween-20, 0.1% BSA, 0.05% sodium azide) for 10 minutes, followed by baseline signal measurement in kinetics buffer for 60 seconds. Antibody HT12-GL was loaded from a 2 μg/mL solution onto AHC biosensors for 120 sec. For binding to hIL3-Rα, the antibody-loaded biosensor tips were dipped in binding buffer for 60 sec (baseline), followed by immersion in a solution containing dilutions of hIL3-Rα (10-0.16 μg/mL) for 300 sec (association), and subsequent immersion in kinetics buffer for 400 sec (dissociation). For binding to hIL5-Rα and GM-CSFRa, all steps were the same except the concentration of antigen was increased (50-1.56 μg/mL) and the dissociation step was decreased to 300 sec. The signal from a buffer only reference sample was subtracted, and all curves were fit with a 1:1 binding model to determine KD values. […] HT12-GL also bound cynomolgus IL3Rα (FIG. 3G).

hIL3-Rα = molecular target: T1, hIL3-Rα (Homo sapiens, UniProt P26951); test: Biolayer interferometry binding (Octet RED384); settings: in words
T1 sequence (P26951 19-378): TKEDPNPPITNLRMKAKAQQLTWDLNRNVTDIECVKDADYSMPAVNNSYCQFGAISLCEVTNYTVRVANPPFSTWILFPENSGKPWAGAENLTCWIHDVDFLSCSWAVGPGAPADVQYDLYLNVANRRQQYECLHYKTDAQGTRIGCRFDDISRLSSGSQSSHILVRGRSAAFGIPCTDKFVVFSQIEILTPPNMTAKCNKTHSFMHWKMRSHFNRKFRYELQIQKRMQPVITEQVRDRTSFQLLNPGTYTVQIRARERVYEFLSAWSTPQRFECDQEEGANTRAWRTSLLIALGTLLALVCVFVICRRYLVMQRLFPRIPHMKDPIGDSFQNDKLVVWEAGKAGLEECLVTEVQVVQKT
Procedure: as §1, §2

[1] = test system: IL-3 dependent proliferation of TF-1; test: TF-1 cell proliferation (CellTiter-Glo); assay type: cell-based; settings: 10 μg/ml antibody, IL-3 1 ng/ml, 3 days
Procedure: The erythroleukemia cell line TF-1 that can proliferate only in the presence of one of the following growth factors, either IL-3 or GM-CSF was used. TF-1 cells were washed with RPMI and cultured overnight in the complete RPMI media (RPMI-1640, 10% fetal bovine serum) without any growth factor. To block Fc receptors on the cell surface, cells were incubated with human Fc block at RT for 5-10 mins. Cells were spun at 1300 rpm for 5 mins and were plated at 8,000 cells per well in complete media in either the presence or absence of 10 μg/ml of anti CD123 antibodies (HT12 and J13) or control antibodies (NIP228, 9F5). A growth factor, either IL-3 (1 ng/ml) or GM-CSF (2 ng/ml), was added to the cells to initiate proliferation. […] Cell viability was measured by CellTiter-Glo® (CTG) Luminescent cell Viability Assay. […] Then the absorbance was measured by Envision luminescence reader. The relative cell number in each well was calculated by dividing the value of each sample treated with an antibody by the average values of wells with the untreated cells (control). […]
To measure the concentration of antibody needed for IL3 inhibition, TF-1 cells were seeded at 8,000 cells per well and antibodies were added at a 10 point dilution starting at 10 μg/ml. […] The relative cell number in each well was determined by Cell Titre Glo as described above.

[2] = test system: GM-CSF mediated proliferation of TF-1; test: TF-1 cell proliferation (CellTiter-Glo); assay type: cell-based; settings: 10 μg/ml antibody, GM-CSF 2 ng/ml, 3 days
Procedure: The erythroleukemia cell line TF-1 that can proliferate only in the presence of one of the following growth factors, either IL-3 or GM-CSF was used. TF-1 cells were washed with RPMI and cultured overnight in the complete RPMI media (RPMI-1640, 10% fetal bovine serum) without any growth factor. To block Fc receptors on the cell surface, cells were incubated with human Fc block at RT for 5-10 mins. Cells were spun at 1300 rpm for 5 mins and were plated at 8,000 cells per well in complete media in either the presence or absence of 10 μg/ml of anti CD123 antibodies (HT12 and J13) or control antibodies (NIP228, 9F5). A growth factor, either IL-3 (1 ng/ml) or GM-CSF (2 ng/ml), was added to the cells to initiate proliferation. Cells were incubated at 37° C. in a humidified 5% CO2 incubator for 3 days. Cell viability was measured by CellTiter-Glo® (CTG) Luminescent cell Viability Assay. CTG reagent was added into the wells at equal volume and the plates were shaken at room temperature for 10 minutes. Then the absorbance was measured by Envision luminescence reader. The relative cell number in each well was calculated by dividing the value of each sample treated with an antibody by the average values of wells with the untreated cells (control). […] Isotype antibody had no effect on cell proliferation.

binding to cynomolgus IL3Rα (cynomolgus IL3Rα): showed affinity
binding to human IL3Rα (hIL3-Rα): showed affinity
B1: J13: anti-CD123 antibody, VH SEQ ID NO: 15, VL SEQ ID NO: 16 (antibody, V domains shown)
VH: EVQLVESGGGLVQPGGSLRLSCVVSGFTFSSYAMSWVRQAPGKGLEWVSAISGSGDSTYYADSVKGRFTFSRDNSKNTLYLQMNSLRAEDTAVYYCTKDRGFYYGMDVWGQGTMVTVSS
VL: [here about 100 residues without letters]FGQGTRLEIK
modifications: J13 VH; J13 VL
inhibition of IL-3 dependent proliferation of TF-1 [1]: to a lesser extent
inhibition of GM-CSF mediated proliferation of TF-1 [2]: not
